From paper PMC6750928
No constants are given. Whether binding was seen depends on the method and setting. Binding seen in cells or lysates may run through a third protein. Some binding calls cover weakened binding; strength is not graded here.

Protein sequences, listed by entry. Tags and fused reporters are not part of them. Residues count along the entry.
UniProt P32248, residues 25-378: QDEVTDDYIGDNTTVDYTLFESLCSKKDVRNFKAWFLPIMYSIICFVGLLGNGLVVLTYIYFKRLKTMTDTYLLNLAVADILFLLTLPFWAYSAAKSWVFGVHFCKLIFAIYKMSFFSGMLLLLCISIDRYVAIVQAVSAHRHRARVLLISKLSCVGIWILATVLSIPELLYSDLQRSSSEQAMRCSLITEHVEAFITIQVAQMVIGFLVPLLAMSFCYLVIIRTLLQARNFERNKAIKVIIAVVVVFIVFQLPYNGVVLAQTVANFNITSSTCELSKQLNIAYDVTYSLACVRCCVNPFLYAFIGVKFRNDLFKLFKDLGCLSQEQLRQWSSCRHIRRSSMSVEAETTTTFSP
UniProt P25106: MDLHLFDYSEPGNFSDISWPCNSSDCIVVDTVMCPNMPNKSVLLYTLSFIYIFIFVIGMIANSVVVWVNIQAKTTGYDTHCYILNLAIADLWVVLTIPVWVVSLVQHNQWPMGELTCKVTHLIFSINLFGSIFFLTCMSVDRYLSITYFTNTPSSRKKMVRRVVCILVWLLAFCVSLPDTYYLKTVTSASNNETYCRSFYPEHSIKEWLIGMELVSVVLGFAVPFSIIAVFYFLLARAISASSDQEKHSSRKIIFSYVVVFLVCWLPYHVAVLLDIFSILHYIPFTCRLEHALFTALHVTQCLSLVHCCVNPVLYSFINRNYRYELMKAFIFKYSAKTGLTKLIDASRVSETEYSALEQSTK
UniProt P61073: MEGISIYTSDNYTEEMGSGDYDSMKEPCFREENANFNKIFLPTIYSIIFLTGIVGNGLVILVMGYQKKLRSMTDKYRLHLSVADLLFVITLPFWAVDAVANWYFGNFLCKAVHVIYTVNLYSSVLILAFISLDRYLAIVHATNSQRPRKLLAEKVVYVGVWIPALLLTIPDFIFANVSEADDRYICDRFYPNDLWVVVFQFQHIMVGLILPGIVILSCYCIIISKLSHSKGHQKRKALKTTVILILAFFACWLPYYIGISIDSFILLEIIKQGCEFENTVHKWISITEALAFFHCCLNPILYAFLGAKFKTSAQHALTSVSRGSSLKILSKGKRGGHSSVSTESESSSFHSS
UniProt P51681: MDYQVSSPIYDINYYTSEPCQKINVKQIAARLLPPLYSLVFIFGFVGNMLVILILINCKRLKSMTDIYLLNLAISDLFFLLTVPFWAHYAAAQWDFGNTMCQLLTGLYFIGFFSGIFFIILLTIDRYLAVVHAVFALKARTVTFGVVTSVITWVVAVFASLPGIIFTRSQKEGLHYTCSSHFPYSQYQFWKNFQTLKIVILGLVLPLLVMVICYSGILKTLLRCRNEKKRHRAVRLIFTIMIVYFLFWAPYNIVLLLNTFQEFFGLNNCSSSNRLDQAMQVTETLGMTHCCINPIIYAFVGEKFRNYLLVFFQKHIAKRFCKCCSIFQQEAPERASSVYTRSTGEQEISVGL
UniProt O60895, residues 43-175: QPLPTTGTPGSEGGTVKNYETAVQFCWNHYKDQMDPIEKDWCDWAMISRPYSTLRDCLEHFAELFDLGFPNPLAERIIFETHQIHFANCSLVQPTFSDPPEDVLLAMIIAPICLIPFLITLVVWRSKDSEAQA
UniProt O60894, residues 27-148: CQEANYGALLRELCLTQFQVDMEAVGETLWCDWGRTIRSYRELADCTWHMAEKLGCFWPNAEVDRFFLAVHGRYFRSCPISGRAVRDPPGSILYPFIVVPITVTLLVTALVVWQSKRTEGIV

Experiments:
Assay in all cases: co-IP; multiplexed suspension bead array (SBA) immunoassay: clarified lysates (1% DM; 50 mM Hepes, 1 mM EDTA, 150 mM NaCl, 5 mM MgCl2, pH 7.4) of HEK293F cells cotransfected with tagged GPCR and RAMP, diluted to 50 ug/ml, incubated overnight at 4°C with bar-coded beads carrying anti-tag (HA, 1D4, FLAG, OLLAS), anti-GPCR or anti-RAMP Abs; the partner detected with a PE-conjugated anti-tag mAb; Luminex FlexMap 3D, MFI
[1] = target: T1, Cortocotropin-releasing hormone receptor 2 (human) (UniProt Q13324)
T1 sequence: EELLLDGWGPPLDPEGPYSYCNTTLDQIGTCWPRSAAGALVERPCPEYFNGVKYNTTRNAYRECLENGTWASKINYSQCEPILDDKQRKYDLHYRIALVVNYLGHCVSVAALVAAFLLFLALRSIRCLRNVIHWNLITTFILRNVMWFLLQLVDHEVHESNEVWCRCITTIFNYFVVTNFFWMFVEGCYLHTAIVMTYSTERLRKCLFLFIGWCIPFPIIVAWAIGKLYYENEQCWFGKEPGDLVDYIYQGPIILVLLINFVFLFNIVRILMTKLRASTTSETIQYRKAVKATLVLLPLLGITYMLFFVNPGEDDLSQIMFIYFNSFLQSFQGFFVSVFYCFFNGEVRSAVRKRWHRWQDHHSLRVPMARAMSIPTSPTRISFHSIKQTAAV

[2] = target: T2, VIP and PACAP receptor 1 (human) (UniProt P32241)
T2 sequence: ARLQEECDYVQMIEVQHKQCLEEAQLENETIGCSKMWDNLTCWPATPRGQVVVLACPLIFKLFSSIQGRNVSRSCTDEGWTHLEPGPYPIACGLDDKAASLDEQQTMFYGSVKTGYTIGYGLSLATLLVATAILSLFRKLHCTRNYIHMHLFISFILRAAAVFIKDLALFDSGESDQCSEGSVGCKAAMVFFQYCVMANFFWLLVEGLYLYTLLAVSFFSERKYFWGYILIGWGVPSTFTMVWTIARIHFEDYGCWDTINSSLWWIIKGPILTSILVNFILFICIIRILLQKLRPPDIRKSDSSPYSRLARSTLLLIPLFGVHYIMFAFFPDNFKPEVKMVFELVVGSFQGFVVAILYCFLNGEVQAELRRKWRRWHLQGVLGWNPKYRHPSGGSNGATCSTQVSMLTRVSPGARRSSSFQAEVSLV

[3] = target: C-C chemokine receptor type 7 (human) (UniProt P32248)
[4] = target: Atypical chemokine receptor 3/C-X-C chemokine receptor 7 (human) (UniProt P25106)
[5] = target: C-X-C chemokine receptor type 4 (human) (UniProt P61073)
[6] = target: C-C chemokine receptor type 5 (human) (UniProt P51681)
[7] = target: T3, Growth hormone releasing hormone (human) (UniProt Q02643)
T3 sequence: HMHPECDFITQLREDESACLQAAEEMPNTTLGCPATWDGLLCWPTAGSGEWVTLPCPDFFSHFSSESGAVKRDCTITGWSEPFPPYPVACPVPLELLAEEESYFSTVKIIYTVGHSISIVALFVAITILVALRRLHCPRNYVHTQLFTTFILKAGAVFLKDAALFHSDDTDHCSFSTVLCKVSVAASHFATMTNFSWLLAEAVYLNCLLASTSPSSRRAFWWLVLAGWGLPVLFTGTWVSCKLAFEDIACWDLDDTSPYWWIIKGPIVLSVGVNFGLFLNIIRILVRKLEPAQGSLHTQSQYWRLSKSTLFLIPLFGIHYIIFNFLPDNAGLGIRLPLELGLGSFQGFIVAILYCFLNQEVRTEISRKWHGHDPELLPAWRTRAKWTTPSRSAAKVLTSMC

Molecule: Receptor activity-modifying protein 2 (from UniProt O60895 43-175)
- binding [1]: no binding
- binding [2]: binds
- binding [3]: no binding
- binding [4]: binds weakly
- binding [5]: no binding
- binding [6]: no binding
- binding [7]: binds

Molecule: Receptor activity-modifying protein 1 (from UniProt O60894 27-148)
- binding [1]: no binding
- binding [2]: no binding
- binding [3]: no binding
- binding [5]: no binding
- binding [6]: no binding

B1: Receptor activity-modifying protein 3 (protein, UniProt O60896 28-148)
chain: CNETGMLERLPLCGKAFADMMGKVDVWKWCNLSEFIVYYESFTNCTEMEANVVGCYWPNPLAQGFITGIHRQFFSNCTVDRVHLEDPPDEVLIPLIVIPVVLTVAMAGLVVWRSKRTDTLL
- binding [1]: binds weakly
- binding [2]: binds
- binding [4]: binds weakly
- binding [5]: no binding
- binding [7]: binds
